From the supplement of paper PMC3334620 come the findings set out here.

Over roughly 33,000 sequences, “E-score (-0.5 to 0.5)” has its median near -0.041; the highest 2% begin near 0.37. This is one part of the list.

For this experiment, the target named is T1, Ecm22 (UniProt Q05958).
T1 sequence: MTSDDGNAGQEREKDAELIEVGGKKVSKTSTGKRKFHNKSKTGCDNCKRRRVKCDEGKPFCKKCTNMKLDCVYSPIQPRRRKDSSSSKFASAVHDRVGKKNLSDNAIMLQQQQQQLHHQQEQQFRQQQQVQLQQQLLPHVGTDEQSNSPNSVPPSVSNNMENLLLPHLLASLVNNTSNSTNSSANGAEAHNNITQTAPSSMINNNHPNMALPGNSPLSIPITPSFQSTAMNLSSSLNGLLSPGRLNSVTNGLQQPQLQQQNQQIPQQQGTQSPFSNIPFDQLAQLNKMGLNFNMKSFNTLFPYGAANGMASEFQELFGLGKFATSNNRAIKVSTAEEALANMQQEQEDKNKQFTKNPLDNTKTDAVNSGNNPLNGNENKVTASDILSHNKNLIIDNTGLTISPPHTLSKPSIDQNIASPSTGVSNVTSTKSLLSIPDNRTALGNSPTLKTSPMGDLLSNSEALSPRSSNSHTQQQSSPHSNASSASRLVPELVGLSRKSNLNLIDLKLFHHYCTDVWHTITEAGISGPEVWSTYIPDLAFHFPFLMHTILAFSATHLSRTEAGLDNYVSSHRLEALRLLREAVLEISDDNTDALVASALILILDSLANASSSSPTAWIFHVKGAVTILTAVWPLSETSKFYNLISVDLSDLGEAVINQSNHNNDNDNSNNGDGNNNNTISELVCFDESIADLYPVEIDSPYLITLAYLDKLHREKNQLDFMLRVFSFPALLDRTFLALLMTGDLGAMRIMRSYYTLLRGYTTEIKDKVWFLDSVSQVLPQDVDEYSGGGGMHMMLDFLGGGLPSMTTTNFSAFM
Description: PBM E-score (8-mer binding enrichment) (E-score (-0.5 to 0.5)); higher = stronger / more preferred TF binding; most listed sequences are background and not binding sites. To be noted: protein concentration: 200 nM; construct: GST-full length. The procedure:
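Universal 'all 10-mer' protein binding microarrays (Agilent AMADID 015681) probed with GST-tagged S. cerevisiae TFs (full-length or DBD) made by in vitro transcription/translation (PURExpress), about 100-200 nM. Bound TF was detected with fluorescent anti-GST. Each ungapped 8-mer (which stands for itself and its reverse complement) is scored by the PBM enrichment score (E-score), a modified Wilcoxon-Mann-Whitney statistic from -0.5 to +0.5, computed with the Universal PBM Analysis Suite. Scale: above 0.35 generally sequence-specific binding.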
On to CTGGAGAC, for which the “PBM E-score” value is -0.135.
Regarding AAAGGACG, the “PBM E-score” value was determined as 0.0797.
The figure for AAAAATTG is -0.078; for CGCCATAC it is 0.171.
The result for AGTTTTAT reads 0.0219; that for CCGAAGTA, 0.148.
The figure for TAGAAGAA is -0.011; for AATCAACT it is 0.0303; for CAAATAAC it is 0.0389.
For the sequence AACCATTC, the “PBM E-score” value is -0.23.
The result for ACATCGCC reads -0.204; that for CGTTCTTA, 0.271.
The figure for CAATGCCA is -0.161; for CCGGTAAG it is 0.0008.
The figure for TAACGCGA is 0.189; for GCGCTCTA it is -0.0931; for GATCGCGA it is 0.194.
Regarding TACGGAGA, the “PBM E-score” value amounted to 0.334.
The figure for CTGTACAA is -0.0518; for TGACGAAA it is 0.061; for TATCTAAA it is 0.128.
Consider AAAAAGCC, for which the “PBM E-score” value is -0.00844.
Regarding AGATTGTA, the “PBM E-score” value came to 0.122.
Regarding GGTTTCGA, the “PBM E-score” value was 0.0323.
The figure for ATGGGGAG is -0.115; for CAGGGCAC it is 0.16.
Consider GCAGTACC, for which the “PBM E-score” value is -0.0702.
The figure for TACACGGA is 0.121; for GCCACAGC it is -0.249; for ATCTGTAG it is -0.116.
The figure for AACTCAAA is 0.0495.
Regarding AAGCGACG, the “PBM E-score” value was 0.215.
The result for CGTAAGCC reads 0.199.
The result for GTAGGTGA reads -0.129; that for TCAGATGA, -0.231.
Turning to AGTAATAG, the “PBM E-score” value was -0.00228.
With CTCGACTA, the “PBM E-score” value is -0.0931.
The figure for CGATGGCC is -0.0616.
The figure for AGGGGCCA is -0.17; for CCTACCGC it is -0.144; for AGGTGTTC it is -0.146.
The figure for CAGGGGGG is -0.201.
For the sequence AGCTATTG, the “PBM E-score” value is -0.0818.
The figure for AAGAAGAA is 0.015.
The figure for GCGATATA is 0.273; for ATGTCGCA it is 0.267; for CAGAGGGA it is -0.00329.
The figure for ATACGCGC is 0.301.
With AGTCGTTG, the “PBM E-score” value was determined as 0.184.
The result for CGGAACAC reads 0.0377.
The result for TAATGCCA reads -0.00988; that for GCCTCAAC, -0.173; that for ACTTCCTG, -0.106.
The result for CGATGCAG reads -0.00827; that for ATACTTAC, 0.0382.
As for GAATCAAA, the “PBM E-score” value turned out to be 0.0232.
The figure for TAGACACA is -0.238.
The figure for AGTTGTCA is -0.0616; for TCTATCCA it is -0.169.
The result for ATAAGGGG reads -0.228.
In the case of ACTTATCA, the “PBM E-score” value is -0.0899.
The figure for TAATAGAA is -0.0249.
The result for AGTCGAGG reads -0.0783.
The result for CCTTGGGA reads -0.316; that for ACTTACCA, -0.0988; that for ACCCCGAC, -0.0233.
Take CGGGCTAA: the “PBM E-score” value is -0.134.
In the case of AAAGTCCA, the “PBM E-score” value is -0.244.
The figure for GAACGAAC is 0.453.
The figure for AGCCTGGA is -0.301; for ACTATCCT it is -0.133; for AGGGCTAG it is -0.279.
For the sequence AATCCCTA, the “PBM E-score” value turned out to be 0.0792.
The result for CTCAACTA reads -0.194; that for AGACAGAC, 0.082.
The result for AGGGTCAG reads -0.273; that for GTAGACTA, 0.00348.
The result for ATATAGAA reads 0.00358; that for GTCCAGAA, -0.142; that for GAGATGGC, -0.16.
On to AGGTGGGG, for which the “PBM E-score” value was -0.193.
The figure for GTCCCTGA is -0.198; for CATAGCGA it is 0.0572; for CGTCACCC it is -0.0688.
For the sequence CACTTTCG, the “PBM E-score” value came out at 0.0793.
Turning to CACAGTTC, the “PBM E-score” value is -0.0557.
